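How tested: cells in 96-well plates exposed to compound for 48 hours at five concentrations. GI50 is the concentration that inhibits growth by half.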 The source holds more than one record for some entries. This list holds those alone. The source may hold further records. For some of these results: Records of one sample usually come from different ranges of test concentrations, which the source does not state; a value can be the end of its range. For some of these results: Values that stand side by side repeat one measurement across runs, samples, wells, individuals or studies. Marks in square brackets tell the records apart. Letters hold for one entry only.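 Definition used: TGI = concentration required for complete inhibition of growth.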
Assays:
Experiment in all cases: DTP human tumour cell line panel, 48 h
OVCAR-8 ovarian = system: OVCAR-8 ovarian
SF-268 CNS = system: SF-268 CNS
EKVX NSCLC = system: EKVX NSCLC
HCT-15 colon = system: HCT-15 colon
SW-620 colon = system: SW-620 colon
UACC-257 melanoma = system: UACC-257 melanoma
SK-MEL-28 melanoma = system: SK-MEL-28 melanoma
HT29 colon = system: HT29 colon
OVCAR-5 ovarian = system: OVCAR-5 ovarian
RXF 393 renal = system: RXF 393 renal
HOP-92 NSCLC = system: HOP-92 NSCLC
CAKI-1 renal = system: CAKI-1 renal
M14 melanoma = system: M14 melanoma
NCI-H23 lung = system: NCI-H23 lung
SNB-19 CNS = system: SNB-19 CNS
NCI-H226 lung = system: NCI-H226 lung
UO-31 renal = system: UO-31 renal
SK-MEL-2 melanoma = system: SK-MEL-2 melanoma
RXF-631 renal = system: RXF-631 renal
HL-60(TB) leukemia = system: HL-60(TB) leukemia
M19-MEL melanoma = system: M19-MEL melanoma
SNB-75 CNS = system: SNB-75 CNS
COLO 205 colon = system: COLO 205 colon
SNB-78 CNS = system: SNB-78 CNS
DMS 114 small cell lung = system: DMS 114 small cell lung
RPMI-8226 leukemia = system: RPMI-8226 leukemia
SK-MEL-5 melanoma = system: SK-MEL-5 melanoma
XF 498 CNS = system: XF 498 CNS
786-0 renal = system: 786-0 renal
A549 NSCLC = system: A549 NSCLC
HOP-62 NSCLC = system: HOP-62 NSCLC
K-562 leukemia = system: K-562 leukemia
SN12C renal = system: SN12C renal
DMS 273 small cell lung = system: DMS 273 small cell lung
LXFL 529 NSCLC = system: LXFL 529 NSCLC
OVCAR-4 ovarian = system: OVCAR-4 ovarian
SF-539 CNS = system: SF-539 CNS
HCC-2998 colon = system: HCC-2998 colon
HCT-116 colon = system: HCT-116 colon
NCI-H522 lung = system: NCI-H522 lung
HOP-18 NSCLC = system: HOP-18 NSCLC
MOLT-4 leukemia = system: MOLT-4 leukemia
U251 CNS = system: U251 CNS
A498 renal = system: A498 renal
CCRF-CEM leukemia = system: CCRF-CEM leukemia
MALME-3M melanoma = system: MALME-3M melanoma

`Oc1ccc(/C=N/Nc2nnc(N/N=C/c3ccc(O)cc3O)c3ccccc23)c(O)c1` was tested, and the TGI (OVCAR-8 ovarian) was 917 nM and > 33.7 µM, the TGI (SF-268 CNS) was 558 nM and 8 µM and the TGI (EKVX NSCLC) was 558 nM and > 20 µM. The TGI (HCT-15 colon) was 672 nM and 21.3 µM.

For `COc1ccc2c3c(c4cc(OC)c(OC)cc4c2c1)C[C@H]1CCCCN1C3`, the TGI (SW-620 colon) was 0.00673 nM [1 test] and 53.1 nM [mean of 4 tests], the GI50 (UACC-257 melanoma) was > 50 µM [1 test] and 5.14 nM [mean of 6 tests] and the TGI (UACC-257 melanoma) was > 50 µM [1 test] and 12.8 nM [mean of 6 tests]. For the same compound, the GI50 (SF-268 CNS) was 0.00231 nM [1 test] and 5 nM [mean of 5 tests], the TGI (SF-268 CNS) was 0.5 nM [1 test] and 12.9 nM [mean of 5 tests] and the GI50 (SK-MEL-28 melanoma) was 0.00253 nM [1 test] and 5 nM [mean of 5 tests]. For the same compound, the TGI (SK-MEL-28 melanoma) was 0.5 nM [1 test] and 8.85 nM [mean of 5 tests], the TGI (HT29 colon) was 0.00218 nM and 6.03 nM and the GI50 (OVCAR-5 ovarian) was > 50 µM [1 test] and 5 nM [mean of 5 tests]. The TGI (OVCAR-5 ovarian) was > 50 µM [1 test] and 28.6 nM [mean of 5 tests], the GI50 (RXF 393 renal) was 0.00327 nM [1 test] and 5 nM [mean of 5 tests] and the TGI (RXF 393 renal) was 0.5 nM [1 test] and 6.02 nM [mean of 5 tests].

In the case of `COc1cc2nccc(Oc3ccc(NC(=O)C4(C(=O)Nc5ccc(F)cc5)CC4)cc3)c2cc1OC`, the GI50 (HOP-92 NSCLC) is reported as 362 nM [sample A, 1 test] and < 34.6 nM [sample B, mean of 2 tests].

With `Cc1c(N)nc(C2CC(=O)N2CC(N)C(N)=O)nc1C(=O)NC(C(=O)NC(C)C(O)C(C)C(=O)NC(C(=O)NCCc1nc(-c2nc(C(=O)NCCNCC(C)O)cs2)cs1)C(C)O)C(OC1OC(CO)C(O)C(O)C1OC1OC(CO)C(O)C(OC(N)=O)C1O)c1cnc[nH]1` (configuration not stated) the TGI (CAKI-1 renal) was 331 nM and > 100 µM.

`Cc1cc(C2(c3cc(C)c(O)c4ncccc34)OC(=O)c3ccccc32)c2cccnc2c1O` was tested, and the TGI (M14 melanoma) was 6.38 µM and > 100 µM, the TGI (NCI-H23 lung) was 628 nM and > 100 µM and the TGI (SNB-19 CNS) was 630 nM and > 100 µM. For the same compound, the TGI (EKVX NSCLC) was 265 nM and > 100 µM, the TGI (NCI-H226 lung) was 222 nM and 30.3 µM and the TGI (UO-31 renal) was 39 nM and > 100 µM.

For `COC1=C(C)C(=O)C2=C(C1=O)C1C3CC4=C(C(=O)C(OC)=C(C)C4=O)C(CNC(=O)C(C)=O)N3C(C#N)C(C2)N1C` (configuration not stated), the TGI (M14 melanoma) was 0.686 nM, 34 nM, 12.3 nM, the TGI (OVCAR-8 ovarian) was 5.21 nM, 53.8 nM, 67.3 nM and the TGI (NCI-H23 lung) was 0.36 nM and 18 nM. For the same compound, the TGI (SK-MEL-2 melanoma) was 0.158 nM, 3.02 nM, 4.93 nM, the TGI (RXF-631 renal) was 8.22 nM and 952 nM and the TGI (HL-60(TB) leukemia) was 0.862 nM, 1.06 nM, 89.9 nM. The TGI (M19-MEL melanoma) was 1.17 nM and 21.3 nM, the TGI (SNB-75 CNS) was 2.93 nM, 13.5 nM, 16.6 nM, < 14.2 nM and the TGI (UACC-257 melanoma) was 0.307 nM, 9.46 nM, < 13.3 nM. The TGI (COLO 205 colon) was 1.29 nM [1 test] and 0.85 nM [mean of 2 tests] and 8.78 nM [mean of 6 tests], the TGI (SF-268 CNS) was 7.8 nM and 299 nM and the TGI (SNB-78 CNS) was 0.65 nM, 148 nM, < 21.6 nM. For the same compound, the TGI (DMS 114 small cell lung) was 0.178 nM and 4.23 nM, the TGI (RPMI-8226 leukemia) was 0.632 nM, 10.5 nM, 82.4 nM and the TGI (EKVX NSCLC) was 9.39 nM, 608 nM, 46.2 nM. The TGI (SK-MEL-5 melanoma) was 3.25 nM, 0.257 nM [1 test] and 5.13 nM [mean of 6 tests], the GI50 (XF 498 CNS) was 0.205 nM [mean of 2 tests] and 11 nM [mean of 3 tests] and the TGI (XF 498 CNS) was 1.35 nM [mean of 2 tests] and 26 nM [mean of 3 tests]. The TGI (786-0 renal) was 8.31 nM, 428 nM [1 test] and 1.42 µM [mean of 5 tests], the TGI (A549 NSCLC) was 57.1 nM, 4.61 µM, 1.61 µM and the TGI (HOP-62 NSCLC) was 4.37 nM, 122 nM, 108 nM. The TGI (SK-MEL-28 melanoma) was 0.875 nM, 18 nM, < 25.5 nM, the TGI (HCT-15 colon) was 8.57 nM, < 33.5 nM [mean of 2 tests] and 355 nM [mean of 4 tests] and the TGI (K-562 leukemia) was 0.0564 nM, 344 nM, 49.6 nM. For the same compound, the GI50 (SN12C renal) was 0.0806 nM [mean of 2 tests] and 3.39 nM [mean of 6 tests], the TGI (DMS 273 small cell lung) was 0.204 nM and 19.5 nM and the GI50 (LXFL 529 NSCLC) was 0.187 nM and 2.93 nM. The TGI (LXFL 529 NSCLC) was 0.451 nM and 1.1 µM, the TGI (OVCAR-4 ovarian) was 3.04 nM, 189 nM, 74.1 nM and the TGI (HT29 colon) was 5.99 nM and 128 nM. The TGI (SF-539 CNS) was 2.36 nM, 2.24 nM, 35.1 nM, < 15.6 nM, the TGI (NCI-H226 lung) was 4.89 nM, 53.2 nM, < 23.9 nM and the TGI (HCC-2998 colon) was 1.85 nM, 22.2 nM, 20.1 nM. The GI50 (UO-31 renal) was 1.55 nM, 14.8 nM [mean of 2 tests] and 30.7 nM [mean of 6 tests], the TGI (UO-31 renal) was 5.8 nM, 47.4 nM [mean of 2 tests] and 113 nM [mean of 6 tests] and the TGI (HCT-116 colon) was 5.09 nM, 1.09 µM [1 test] and 1.39 µM [mean of 3 tests]. For the same compound, the TGI (NCI-H522 lung) was 1.73 nM, 0.06 nM, 3.29 nM, the TGI (HOP-18 NSCLC) was 0.996 nM and 7.63 µM and the TGI (MOLT-4 leukemia) was 4.84, 2.37, 200, 135 nM. The TGI (U251 CNS) was 1.74 µM and 119 nM, the TGI (A498 renal) was 18.8 nM [1 test] and 232 nM [mean of 4 tests] and the TGI (CCRF-CEM leukemia) was 5.19 nM, 1.06 µM, > 100 µM. For the same compound, the TGI (MALME-3M melanoma) was 0.301 nM, 6.03 nM, < 17.1 nM.

Source: PubChem BioAssay (NCI)
